Measured values reported in patent publication US20210147571A1, “MONOCLONAL ANTIBODY TARGETING HUMAN TUMOR STEM CELLS AND USE THEREOF” (Suzhou Bojuhua Biomedical Technology Co. Ltd, priority 2017, published 2021).

Key:
[1] = tested on: Hetumomab target antigen on cells; experiment: cell ELISA affinity of humanized chain versions; format: binding, human; settings: heavy chain version combined with L11
Text: Based on the H1 heavy chain sequence, two other heavy chain mutants were designed as initial humanization: H2 and H3. The degree of humanization of these versions was in descending order. […] Since H1 was the most humanized version in which the framework regions were all humanized, H1 was finally determined as the preferred humanization molecular template.
Based on the L1 with fully humanized FR region, L2 and L3 were designed, and the degree of humanization of the three version was also in descending order. […] In order to find out which key amino acids were mutated during humanization, back mutations were performed, and nine different mutants (L4-L12) were prepared.
Therefore, L6, L11, and L12 were finally selected for optimization screening of the best light chain humanized version.
However, glycosylated isomers of Hetuzumab H1 heavy chain were confirmed by antibody sequence analysis and reductive electrophoresis analysis. In the analysis of H1 heavy chain expression products by electrophoresis, H1L6, H1L11, and H1L12 were all shown with weak sub-bands visible below the main band of the heavy chain. […] This may cause serious quality problems of uniformity, which is very unfavorable for drug development. […] H4 and H5 were combined with L11, respectively, and analyzed by electrophoresis after expression. […]

BGC-823 sphere cells = experiment: sphere-forming inhibition (self-renewal); format: cell-based, human; settings: Table 33
Description: (§1) The main manifestation of the self-renewal ability of tumor stem cells is the ability to form spheres in serum-free medium, which is called asymmetric division, that is, when one cell divides into two daughter cells, one of the daughter cells maintains the same features as the parental cell, while the other daughter cell may continue to divide, forming normal daughter cells. […] And then Hetumomab (250 μg/mL) was used as the experimental group, and the PBS was used as a negative control group to incubate with the cells at 37° C. for 2 h, during which the cells were mixed with the antibody or the negative control once every half an hour. 500 cells in each group were inoculated into a semi-solid sphere medium (containing EGF, LIF, bFGF, etc.) containing 0.8% methylcellulose, and cultured in an ultra-low adhesion 24-well plate. 1-1.5 mL liquid medium was added every other day, and the number of spheres formed from the two groups was observed after 14 days.

Bel7402-V13 sphere cells = experiment: sphere-forming inhibition (self-renewal); format: cell-based, human; settings: Table 33
Description: as §1

MHCC-97L sphere cells = experiment: sphere-forming inhibition (self-renewal); format: cell-based, human; settings: Table 33
Description: as §1

SNU-5 sphere cells = experiment: sphere-forming inhibition (self-renewal); format: cell-based, human; settings: Table 33
Description: as §1

[2] = tested on: Bel7402-V13 transplanted tumor; experiment: human liver cancer transplanted tumor treated with Hetuzumab H5L11; format: in vivo, nude mice
Description: Specifically, the sphere cells of the human liver cancer cell line Bel7402-V13 were harvested and inoculated subcutaneouly into nude mice at 30000 cells/mouse. […] The antibody treatments were started on the second day after inoculation of cancer cells. The experimental group and the control group were treated by intraperitoneal injection. The antibody treatments were performed for 36 days. The chemotherapeutic drug group was treated for 4 weeks, twice a week. The major and minor diameters of the subcutaneously transplanted tumor were measured twice a week. The tumor volume was calculated with the formula V=(π/6)×(major diameter×minor diameter×minor diameter). The change in tumor volume in each group was observed.

MHCC97L cells = experiment: flow immunofluorescence, positive cells in parental and sphere cells; format: binding, human; settings: MHCC-97L, Table 32
Description: (§2) The human liver cancer cell line Bel7402-V13 and MHCC97L cells were cultured for 5 days in a serum-free manner, and the Hetumomab^+ cells in the parental cells and in the cells from sphere culture were detected by viable cell flow fluorescence cytometry. […] That is, after serum-free culture, Hetumomab^+ cells of the liver cancer cell line were enriched.
(§3) As described above, four cell lines, SNU-5, BGC-823, MHCC-97L, and BEL7402 V13, were used to harvest both parental cells and tumor-stem-cell-rich sphere cells. […] The results are as follows:
(§4) According to the aforementioned method, four cell lines, SNU-5, BGC-823, MHCC-97L, and BEL7402 V13, were used to harvest both parental cells and tumor-stem-cell-rich sphere cells. […]

Bel7402-V13 cells = experiment: as above; format: binding, human; settings: BEL7402 V13, Table 32
Description: as §2, §3, §4

[3] = tested on: Hetumomab target antigen in liver, lung, gastric cancer tissue sections; experiment: immunohistochemistry of antigen-positive and negative tissue sections; format: binding, human; settings: Example 11
SNU-5 cells = experiment: flow immunofluorescence, positive cells in parental and sphere cells; format: binding, human; settings: SNU-5, Table 32
Description: as §2, with “gastric” for “liver”, “SNU-5” for “Bel7402-V13”, “BGC-823” for “MHCC97L”, “after the” for “after”
as §3, §4

BGC-823 cells = experiment: as above; format: binding, human; settings: BGC-823, Table 32
Description: as §2, with “gastric” for “liver”, “SNU-5” for “Bel7402-V13”, “BGC-823” for “MHCC97L”, “after the” for “after”
as §3, §4

[4] = BEL7402 V13, antibody 160 ug/ml

B1: Hetuzumab H5L11: humanized antibody, heavy chain SEQ ID NO:36 and light chain SEQ ID NO:47 (antibody)
heavy: QVTLKESGPTLVKPTQTLTLTCTFSGFSLSTSGMGVSWIRQPPGKALEWLAHIYWDDDKRYNPSLKSRLTISKDTSKNQVVLTMTNMDPVDTATYYCARSFYYYAANSFAYWGQGTLVTVSS[human IgG1 constant region left out here]
light: DIVMTQTPFSNPVTLGQPASISCRSSKSLLHSNGITYLYWFLQKPGQSPQLLIYQMSNLASGVPDRFSGSGSGTDFTLKISRVEAEDVGVYYCAQNLELYTFGQGTKVEIKRTVAAPSVFIFPPSDEQLKSGTASVVCLLNNFYPREAKVQWKVDNALQSGNSQESVTEQDSKDSTYSLSSTLTLSKADYEKHKVYACEVTHQGLSSPVTKSFNRGEC
modifications: Humanized heavy chain H5; Humanized light chain L11
affinity by cell ELISA [1]: approximately comparable affinity | Average number of formed spheres (BGC-823 sphere cells; BGC-823, antibody 10 ug/ml): 225 | Inhibition Rate (%) (BGC-823 sphere cells; BGC-823, antibody 10 ug/ml): 11.1% | Average number of formed spheres (BGC-823 sphere cells; BGC-823, antibody 20 ug/ml): 198 | Inhibition Rate (%) (BGC-823 sphere cells; BGC-823, antibody 20 ug/ml): 21.7% | Average number of formed spheres (BGC-823 sphere cells; BGC-823, antibody 40 ug/ml): 188 | Inhibition Rate (%) (BGC-823 sphere cells; BGC-823, antibody 40 ug/ml): 25.7% | Average number of formed spheres (BGC-823 sphere cells; BGC-823, antibody 80 ug/ml): 155 | Inhibition Rate (%) (BGC-823 sphere cells; BGC-823, antibody 80 ug/ml): 38.7% | Average number of formed spheres (BGC-823 sphere cells; BGC-823, antibody 160 ug/ml): 135 | Inhibition Rate (%) (BGC-823 sphere cells; BGC-823, antibody 160 ug/ml): 46.6% | Average number of formed spheres (Bel7402-V13 sphere cells; BEL7402 V13, antibody 10 ug/ml): 205 | Inhibition Rate (%) (Bel7402-V13 sphere cells; BEL7402 V13, antibody 10 ug/ml): 10.9% | Average number of formed spheres (Bel7402-V13 sphere cells; BEL7402 V13, antibody 20 ug/ml): 191 | Inhibition Rate (%) (Bel7402-V13 sphere cells; BEL7402 V13, antibody 20 ug/ml): 17.0% | Average number of formed spheres (Bel7402-V13 sphere cells; BEL7402 V13, antibody 40 ug/ml): 151 | Inhibition Rate (%) (Bel7402-V13 sphere cells; BEL7402 V13, antibody 40 ug/ml): 34.3% | Average number of formed spheres (Bel7402-V13 sphere cells; BEL7402 V13, antibody 80 ug/ml): 129.5 | Inhibition Rate (%) (Bel7402-V13 sphere cells; BEL7402 V13, antibody 80 ug/ml): 43.7% | Average number of formed spheres (Bel7402-V13 sphere cells; [4]): 101 | Inhibition Rate (%) (Bel7402-V13 sphere cells; [4]): 56.1% | Average number of formed spheres (MHCC-97L sphere cells; antibody 10 ug/ml): 212 | Inhibition Rate (%) (MHCC-97L sphere cells; antibody 10 ug/ml): 12.0% | Average number of formed spheres (MHCC-97L sphere cells; antibody 20 ug/ml): 190 | Inhibition Rate (%) (MHCC-97L sphere cells; antibody 20 ug/ml): 21.2% | Average number of formed spheres (MHCC-97L sphere cells; antibody 40 ug/ml): 160.5 | Inhibition Rate (%) (MHCC-97L sphere cells; antibody 40 ug/ml): 33.4% | Average number of formed spheres (MHCC-97L sphere cells; antibody 80 ug/ml): 145 | Inhibition Rate (%) (MHCC-97L sphere cells; antibody 80 ug/ml): 39.8% | Average number of formed spheres (MHCC-97L sphere cells; antibody 160 ug/ml): 110 | Inhibition Rate (%) (MHCC-97L sphere cells; antibody 160 ug/ml): 54.4% | Average number of formed spheres (SNU-5 sphere cells; SNU-5, antibody 10 ug/ml): 218 | Inhibition Rate (%) (SNU-5 sphere cells; SNU-5, antibody 10 ug/ml): 11.0% | Average number of formed spheres (SNU-5 sphere cells; SNU-5, antibody 20 ug/ml): 188 | Inhibition Rate (%) (SNU-5 sphere cells; SNU-5, antibody 20 ug/ml): 23.3% | Average number of formed spheres (SNU-5 sphere cells; SNU-5, antibody 40 ug/ml): 178 | Inhibition Rate (%) (SNU-5 sphere cells; SNU-5, antibody 40 ug/ml): 27.3% | Average number of formed spheres (SNU-5 sphere cells; SNU-5, antibody 80 ug/ml): 156 | Inhibition Rate (%) (SNU-5 sphere cells; SNU-5, antibody 80 ug/ml): 36.3% | Average number of formed spheres (SNU-5 sphere cells; SNU-5, antibody 160 ug/ml): 126 | Inhibition Rate (%) (SNU-5 sphere cells; SNU-5, antibody 160 ug/ml): 48.6% | Tumor Volume Inhibition Rate (%) ([2]; High Dose 20 mg/kg i.p., day 36): 47.47% | Tumor Volume Inhibition Rate (%) ([2]; High Dose, After Growth of Tumor): 45.65% | Tumor Volume Inhibition Rate (%) ([2]; Low Dose 1.25 mg/kg i.p., day 36): 36.80% | positive rate, Parent (MHCC97L cells): 6.85% | positive rate, Sphere (MHCC97L cells): 14.66% | positive rate, Parent (Bel7402-V13 cells): 6.94% | positive rate, Sphere (Bel7402-V13 cells): 11.31% | staining of negative tissue sections ([3]; 10 negative sections): did not stain | staining of target antigen-positive tissue sections ([3]; 10 positive sections): positively stain | positive rate, Parent (SNU-5 cells): 3.59% | positive rate, Sphere (SNU-5 cells): 5.92% | positive rate, Parent (BGC-823 cells): 3.39% | positive rate, Sphere (BGC-823 cells): 5.42%
